First the molecules themselves.
B1: GATAD2B, Q8WXI9 (protein)
chain: MDRMTEDALRLNLLKRSLDPADERDDVLAKRLKMEGHEAMERLKMLALLKRKDLANLEVPHELPTKQDGSGVKGYEEKLNGNLRPHGDNRTAGRPGKENINDEPVDMSARRSEPERGRLTPSPDIIVLSDNEASSPRSSSRMEERLKAANLEMFKGKGIEERQQLIKQLRDELRLEEARLVLLKKLRQSQLQKENVVQKTPVVQNAASIVQPSPAHVGQQGLSKLPSRPGAQGVEPQNLRTLQGHSVIRSATNTTLPHMLMSQRVIAPNPAQLQGQRGPPKPGLVRTTTPNMNPAINYQPQSSSSVPCQRTTSSAIYMNLASHIQPGTVNRVSSPLPSPSAMTDAANSQAAAKLALRKQLEKTLLEIPPPKPPAPLLHFLPSAANSEFIYMVGLEEVVQSVIDSQGKSCASLLRVEPFVCAQCRTDFTPHWKQEKNGKILCEQCMTSNQKKALKAEHTNRLKNAFVKALQQEQEIEQRLQQQAALSPTTAPAVSSVSKQETIMRHHTLRQAPQPQSSLQRGIPTSARSMLSNFAQAPQLSVPGGLLGMPGVNIAYLNTGIGGHKGPSLADRQREYLLDMIPPRSISQSISGQK
B2: NR1H3, Q13133 (protein)
chain: MSLWLGAPVPDIPPDSAVELWKPGAQDASSQAQGGSSCILREEARMPHSAGGTAGVGLEAAEPTALLTRAEPPSEPTEIRPQKRKKGPAPKMLGNELCSVCGDKASGFHYNVLSCEGCKGFFRRSVIKGAHYICHSGGHCPMDTYMRRKCQECRLRKCRQAGMREECVLSEEQIRLKKLKRQEEEQAHATSLPPRASSPPQILPQLSPEQLGMIEKLVAAQQQCNRRSFSDRLRVTPWPMAPDPHSREARQQRFAHFTELAIVSVQEIVDFAKQLPGFLQLSREDQIALLKTSAIEVMLLETSRRYNPGSESITFLKDFSYNREDFAKAGLQVEFINPIFEFSRAMNELQLNDAEFALLIAISIFSADRPNVQDQLQVERLQHTYVEALHAYVSIHHPHDRLMFPRMLMKLVSLRTLSSVHSEQVFALRLQDKKLPPLLSEIWDVHE
B3: SOX8, P57073 (protein)
chain: MLDMSEARSQPPCSPSGTASSMSHVEDSDSDAPPSPAGSEGLGRAGVAVGGARGDPAEAADERFPACIRDAVSQVLKGYDWSLVPMPVRGGGGGALKAKPHVKRPMNAFMVWAQAARRKLADQYPHLHNAELSKTLGKLWRLLSESEKRPFVEEAERLRVQHKKDHPDYKYQPRRRKSAKAGHSDSDSGAELGPHPGGGAVYKAEAGLGDGHHHGDHTGQTHGPPTPPTTPKTELQQAGAKPELKLEGRRPVDSGRQNIDFSNVDISELSSEVMGTMDAFDVHEFDQYLPLGGPAPPEPGQAYGGAYFHAGASPVWAHKSAPSASASPTETGPPRPHIKTEQPSPGHYGDQPRGSPDYGSCSGQSSATPAAPAGPFAGSQGDYGDLQASSYYGAYPGYAPGLYQYPCFHSPRRPYASPLLNGLALPPAHSPTSHWDQPVYTTLTRP
B4: ZNF280D, Q6N043 (protein)
chain: MGDNPFQPKSNSKMAELFMECEEEELEPWQKKVKEVEDDDDDEPIFVGEISSSKPAISNILNRVNPSSYSRGLKNGALSRGITAAFKPTSQHYTNPTSNPVPASPINFHPESRSSDSSVIVQPFSKPGYITNSSRVVSNKSSELLFDLTQDTGLSHYQGGPTLSMAGMSESSFLSKRPSTSEVNNVNPKKPKPSESVSGANSSAVLPSVKSPSVTSSQAMLAKGTNTSSNQSKNGTPFPRACPKCNIHFNLLDPLKNHMKYCCPDMINNFLGLAKTEFSSTVNKNTTIDSEKGKLIMLVNDFYYGKHEGDVQEEQKTHTTFKCFSCLKILKNNIRFMNHMKHHLELEKQSSESWENHTTCQHCYRQFPTPFQLQCHIESTHTPHEFSTICKICELSFETEHVLLQHMKDNHKPGEMPYVCQVCNYRSSSFSDVETHFRTSHENTKNLLCPFCLKVIKIATPYMHHYMKHQKKGIHRCTKCRLQFLTCKEKMDHKTQHHRTFIKPKQLEGLPPGTKVTIRASVGPLQSGASPTPSISASASTLQLSPPRTKNITAKNPAKSNTSKPNTVKSNASKPNTSKPNGSKSKYKPKISNMQKKQSTLASSNKKSKVNTALRNLRYRRGIHKCIECCSEIKDFANHFPTYVHCSFCRYNTSCSKAYVNHMMSFHSNRPSKRFCIFKKHSENLRGITLVCLNCDFLSDVSGLDNMATHLSQHKTHTCQVVMQKVSVCIPTSEHLSELKKEAPAKEQEPVSKEIARPNMAERETETSNSESKQDKAASSKEKNGCNANSFEGSSTTKSEESITVSDKENETCLADQETGSKNIVSCDSNIGADKVEKKKQIQHVCQEMELKMCQSSENIILSDQIKDHNSSEARFSSKNIKDLRLASDNVSIDQFLRKRHEPESVSSDVSEQGSIHLEPLTPSEVLEYEATEILQKGSGDPSAKTDEVVSDQTDDIPGGNNPSTTEATVDLEDEKERS
B5: SRY, Q05066 (protein)
chain: MQSYASAMLSVFNSDDYSPAVQENIPALRRSSSFLCTESCNSKYQCETGENSKGNVQDRVKRPMNAFIVWSRDQRRKMALENPRMRNSEISKQLGYQWKMLTEAEKWPFFQEAQKLQAMHREKYPNYKYRPRRKAKMLPKNCSLLPADPASVLCSEVQLDNRLYRDDCTKATHSRMEHQLGHLPPINAASSPQQRDRYSHWTKL
B6: FOXN4, Q96NZ1 (protein)
chain: MIESDTSSIMSGIIRNSGQNHHPSPQEYRLLATTSDDDLPGDLQSLSWLTAVDVPRLQQMASGRVDLGGPCVPHPHPGALAGVADLHVGATPSPLLHGPAGMAPRGMPGLGPITGHRDSMSQFPVGGQPSSGLQDPPHLYSPATQPQFPLPPGAQQCPPVGLYGPPFGVRPPYPQPHVAVHSSQELHPKHYPKPIYSYSCLIAMALKNSKTGSLPVSEIYSFMKEHFPYFKTAPDGWKNSVRHNLSLNKCFEKVENKMSGSSRKGCLWALNLARIDKMEEEMHKWKRKDLAAIHRSMANPEELDKLISDRPESCRRPGKPGEPEAPVLTHATTVAVAHGCLAVSQLPPQPLMTLSLQSVPLHHQVQPQAHLAPDSPAPAQTPPLHALPDLSPSPLPHPAMGRAPVDFINISTDMNTEVDALDPSIMDFALQGNLWEEMKDEGFSLDTLGAFADSPLGCDLGASGLTPASGGSDQSFPDLQVTGLYTAYSTPDSVAASGTSSSSQYLGAQGNKPIALL

Some of the results follow. Binding of human transcription factors and regulators to the viral nucleoprotein by AlphaScreen, crude cell-free proteins, amounts not normalised, one pass. Fold of the Venus control; higher = more signal. No active / inactive call. Single-pass screen; sequences are the whole Swiss-Prot entries looked up by name.

In the assay the target is nucleoprotein N of Crimean-Congo hemorrhagic fever virus. The experiment in a line: AlphaScreen luminescence signal relative to Venus negative control (fold); higher = stronger binding to CCHFV N. On the procedure: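 AlphaScreen binding of cell-free made, FLAG-GST-tagged human transcription factors and regulators (crude translation products) to biotinylated N protein; signal as fold of the FLAG-GST-Venus control. One pass.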
(Bead proximity is the source of the signal in Alpha formats.)
Molecule B1 came in with an AlphaScreen luminescence signal of 1.81.
For B2, the AlphaScreen luminescence signal stood at 2.79.
For B3, the AlphaScreen luminescence signal worked out at 1.77.
On to B4, for which the AlphaScreen luminescence signal was 2.88.
With B5, the AlphaScreen luminescence signal amounted to 2.56.
Molecule B6 yielded an AlphaScreen luminescence signal of 2.42.
